The list shows a part of the results.
tested on: PfHDP1 homeodomain (GST-tagged); assay: gcPBM binding intensity (ln(normalized median fluorescence intensity)); higher = stronger DNA binding
Outline: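 Probes on an Agilent 4 × 180k array were primer-extended, double-stranded and 36 bp long, taken from intergenic genomic regions, with negative controls added. GST-tagged P. falciparum DNA-binding domains from E. coli, about 25 μg on average, were applied to the array for 1 h in 1× PBS containing 1% milk, 0.2 mg/ml BSA, 0.5% salmon testes DNA and 0.03% Triton X-100. Binding intensity, obtained after Alexa488 anti-GST antibody detection and a 488 nm scan, is the highest Masliner-normalised natural-log median intensity across replicate spots of either probe orientation.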

Sequence | gcPBM binding intensity (ln)
AGCTTCATATTATGGAGTACTATTAAAAATAAATAA [XGTACX_site2649] | 6.35
AAATATAACATCATCACACACATATACTTTATATGC [CACACA_site1126] | 6.4
AGATATTATAAAATATGTACATATATATATATATAT [XGTACX_site2088] | 9.22
TAATTAGATTATTTTTGTACATATTATTATAGGTTA [XGTACX_site2077] | 6.29
TTATCTTTTTTCGTTTGTACGTAACCATATTACTAT [XGTACX_site8853] | 6.6
ATTTTTTATGTTAATGCATGCTCATGTGTATTTCAT [TGCATGCA_site751] | 7.72
ATTATACATATTATATGTACATATATAAATAAATAA [XGTACX_site7076] | 6.43
TTATTTTTATATTTTAATTTTAAAAAAATTTTAATT [CACACA_negctrl_site777] | 5.98
TTTCTATTTATTAATACATGCAAAATAAAGTAAAGT [TGCATGCA_site209] | 6.76
ATATATCAATATGGAATATATATATATATATATATA [TGCATGCA_negctrl_site502] | 9.48
TTTTGGTTTTGTTCTACACACATAAAAAAAAAAAAG [CACACA_site2276] | 6.41
TATATATATATATATATATTTATGTATTTATTTAAT [TGCATGCA_negctrl_site179] | 9.35
ATATATATAAATAAATGTACATAAATAATATATTAT [XGTACX_site5419] | 6.85
AAAAAAAAAAAAAAAAGTACAAGCATTGCGTTTTAA [XGTACX_site6075] | 6.54
AGAAAAAAAAAAAAAAAAATATATATATATATATAT [TGCATGCA_negctrl_site411] | 9.35
GTATATATATACCATTGTACTTTCGTAAAAATATTT [XGTACX_site4846] | 6.66
AAAAAAAAAAAAAAAACACACATACACGCACGCACA [CACACA_site7569] | 7.28
TTAATTTATTATCTTTGTACACAATTAAAAAAAAAA [XGTACX_site3469] | 6.21
TTTTATTATAATAATTGTACAAAAATTATTTAATAT [XGTACX_site6054] | 6.18
ATAAATATACATTATACCGACCATGTGGATATTATA [XGTACX_negctrl_site241] | 6.46
GTATATATGTATATGTGTACACATATTCTTAACTCA [XGTACX_site309] | 7.09
ATATAAATTGGCAATAGTACATAAAGGCATAGAAAG [XGTACX_site2674] | 7.46

Sequence | gcPBM binding intensity (ln)
AAATTACACATCCATACACACATATTTTTTTTAATT [CACACA_site5242] | 7.04
AGCTGAAAAAAAAGCTTGCACACGTATTTGCTTTAT [CACACA_site1512] | 8.26
AATATGTAGTAATCAAGTACTAATGTCTTAATTCGG [XGTACX_site308] | 6.56
GTTTTTTATATAAGGTGGTCAACATTGTAATGTTAA [XGTACX_site3204] | 6.64
CATATTATATTCTGCTTACACACATATATATATATA [CACACA_site3059] | 9.41
AATAATAAGAATAACGCATGCACATATAATATAGAA [TGCATGCA_site3] | 8.24
TTTTTTTGTTATATCCTGCACTTCTTAACTATATTA [GTGCAC_site9807] | 7.64
TCATAGGTTCAAAAGGGTACATTAATACATACATAT [XGTACX_site2236] | 6.45
AAATAAAAAAAGGGAACATGCAATATGTACAAATAT [TGCATGCA_site869] | 7.49
GTAGTTACATATAGGGTGCTCCAATAGTTGACCTCG | 6.66
TCTTTTTTCTTTTTTTCACACATTATTTTTTAAATA [CACACA_site5197] | 6.58
CATATATATTGATATGCACACCTATGTATTGATGTA [CACACA_site8269] | 9.47
AGCATTTTTCATTTTGCACACATGTTTTATGGGTAT [CACACA_site5839] | 10.5
ACGATGAATATGTAAAGTACGCAAATGTAACAATAT [XGTACX_site728] | 7.2
AATAATAGAAGCACCCACCCACCACCACCCACACAT [CACACA_negctrl_site1033] | 7.06
GAGAAACTTGTTTAAACATGCACAAAAAAAAAAAAA [TGCATGCA_site340] | 6.82
TATATGGAAAATTAAAGTACTAAAGAATAAATAGAA [XGTACX_site8796] | 6.61
TATAAAATAAATTGTGCACACATATTTATAAATATG [CACACA_site2330] | 10.5
TATAGATACATATACACACACACACCGACATATATA [CACACA_site9138] | 7.03
AATATATGTTTAATTTCACACACAAATATACATTTT [CACACA_site9385] | 6.56
ATATATATATATATATGTACACATATACGCTTTTTC [XGTACX_site3838] | 9.34
TACTCCTTAAATATATGTAAAGGAAGAAAAAAAAAA [XGTACX_negctrl_site306] | 6.37

Reference: the supplement of paper PMC11417369
